# Among all 110,000 compounds or so, about 230 (0.21%) showed an effect of 50% or more. The list shows a part of the results.
# Molecular target: DPAP1 (Plasmodium falciparum, UniProt Q8IIJ9)
# Assay: primary screen, percent inhibition; read by cleavage of a fluorogenic dipeptide substrate; higher = more effect of the substance
# Set-up: species or system P. falciparum D10 trophozoite lysates; single well
# 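Further: 30 min substrate incubation versus DMSO and 10 µM JCP410 controls.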
# DPAP1, sequence (Q8IIJ9 whole entry, looked up): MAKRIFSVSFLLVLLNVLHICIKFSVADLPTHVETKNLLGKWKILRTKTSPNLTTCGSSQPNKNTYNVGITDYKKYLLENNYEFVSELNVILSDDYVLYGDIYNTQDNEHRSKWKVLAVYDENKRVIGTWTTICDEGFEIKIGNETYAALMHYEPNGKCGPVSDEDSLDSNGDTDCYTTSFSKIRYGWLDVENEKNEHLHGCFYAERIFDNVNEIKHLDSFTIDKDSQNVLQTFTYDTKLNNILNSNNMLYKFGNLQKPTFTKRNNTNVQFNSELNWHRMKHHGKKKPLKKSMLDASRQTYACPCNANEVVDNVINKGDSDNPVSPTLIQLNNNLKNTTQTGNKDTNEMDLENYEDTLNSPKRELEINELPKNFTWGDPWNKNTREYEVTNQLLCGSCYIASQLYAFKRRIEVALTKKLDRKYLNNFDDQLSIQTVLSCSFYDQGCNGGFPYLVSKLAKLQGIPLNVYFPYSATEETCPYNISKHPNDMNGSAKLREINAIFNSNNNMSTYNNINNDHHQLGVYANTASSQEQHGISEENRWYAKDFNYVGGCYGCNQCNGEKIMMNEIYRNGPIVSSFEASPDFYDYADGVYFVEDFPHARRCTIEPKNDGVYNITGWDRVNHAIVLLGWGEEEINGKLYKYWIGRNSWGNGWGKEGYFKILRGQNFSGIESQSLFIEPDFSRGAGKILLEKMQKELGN
row,Structure (SMILES),% Inhibition @ 10 uM [%]
1,C=CCN1C(=O)/C(=C\c2ccccc2F)N=C1SCC(=O)NC1CCCCC1,7.05
2,CN1CCN(Cc2ccccc2F)CC1,-7.52
3,COc1ccc(-c2nc3c(c(SC)n2)COC(C)(C)C3)cc1,-3.5
4,CCOc1ccc(-n2cccc2/C=C2/C(=N)N3C(=NC2=O)SN=C3S(C)(=O)=O)cc1,-5.22
5,CCC1(CC)N=C(c2ccccc2)C(=S)N1,1.76
6,COc1cccc(NC(=O)c2c(OC)cccc2OC)c1,-5.11
7,COc1ccc(NC(=O)c2ccc(COc3ccccc3Br)o2)c(OC)c1,-1.79
8,CCc1c(C)sc(N)c1C(=O)Nc1cccc(C(F)(F)F)c1,3.72
9,COc1cccc(C2Nc3ccccc3S(=O)(=O)N2Cc2ccccc2)c1 (centres unmarked),-6.59
10,CCCOc1ccc(C(=O)N2CCN(c3ccc(NC(=O)CC)cc3Cl)CC2)cc1,-11.9
11,Cc1ccc(N2C(=O)c3ccc(C(=O)Nc4cc(C)on4)cc3C2=O)cc1,6.31
12,CSc1ncc(C(=O)O)c(C)n1,-3.02
13,CCOc1ccc(CCNC(=O)NCc2noc3ccc(C)cc23)cc1OCC,-8.38
14,COc1ccc(S(=O)(=O)N(C)CC(=O)N2CCN(Cc3ccc4c(c3)OCO4)CC2)cc1,0.826
15,CCOc1ccc(C(=O)NCC2CCCO2)cc1 (centres unmarked),-2.94
16,COc1ccc(Cl)cc1C(=O)N1N=C(C)CC1(O)C(F)(F)F (centres unmarked),3.24
17,COc1ccc(/C=C2\C(=O)NC(=O)N(C)C2=O)c(OC)c1,7.1
18,O=C(CSCc1cnn(-c2ccccc2)c1-n1cccc1)NCCc1c[nH]c2ccccc12,-4.68
19,Cc1ccc(/C(=C\N2CCOCC2)S(=O)(=O)c2ccc(C)cc2)cc1,-1.79
20,CC1=NN(C(=O)c2ccc(COc3ccc(Br)cc3)o2)C(O)(C(F)(F)F)C1 (centres unmarked),2.4
21,C=C(c1ccccc1)C(C(=O)O)S(C)(=O)=O (centres unmarked),-0.152
22,NS(=O)(=O)c1ccc(CCNC(=O)C2CCCN(c3nc4ccsc4c(=O)s3)C2)cc1 (centres unmarked),-3.48
23,Cc1cccc(CSc2nc3ccncc3n2CC(=O)N2CC(C)CC(C)C2)c1 (centres unmarked),-6.01
24,CN(CC(=O)Nc1ccc(Cl)cc1)S(=O)(=O)c1ccc(Br)cc1,-2.8
25,O=C(Nc1ccc(Br)cc1)c1cccc(S(=O)(=O)Nc2ccccn2)c1,-0.0369

row,Structure (SMILES),% Inhibition @ 10 uM [%]
1,O=C(C1CCN(c2ncnc3c2nc2n3CCCCC2)CC1)N(Cc1ccco1)C1CCCC1,1.66
2,Cc1cc(NC(=O)C2CCN(c3ncnc4c3nc3n4CCCCC3)CC2)no1,2.59
3,O=C(c1ccccc1)N1CCN(C2CC(=O)N(c3cccc(Br)c3)C2=O)CC1 (centres unmarked),-7.34
4,Cc1nnc(O)c2cc3ccccc3n12,-3.53
5,O=C(CSc1nnc(CNC(=O)c2ccccc2F)o1)NCc1ccc(F)cc1,-1.58
6,COc1cccc(CN2CCN(C(=O)c3cccc(Cl)c3)CC2)c1,1.61
7,Cc1cccc2c1-c1sc(C(=O)N3CCCC(C)C3)cc1CO2 (centres unmarked),1.89
8,C=CCNc1ncnc2c1sc1nc3c(cc12)COC(C)(C)C3,-2.94
9,CCOCCCNC(=O)/C(C#N)=C/c1c(Oc2ccc(Br)cc2)nc2ccccn2c1=O,4.06
10,CC(C)c1ccc(S(=O)(=O)c2nnn3c2nc(N2CCCC2)c2ccccc23)cc1,-12.6
11,O=C(Nc1ncc(Br)s1)C1CCN(S(=O)(=O)c2cccc3nonc23)CC1,5.74
12,CCOC(=O)C1CCCN(Cc2ccc(OC)c(C)c2)C1 (centres unmarked),3.16
13,CCn1cc(/C=c2\sc3n(c2=O)C(c2ccccc2)C(C(=O)Nc2ccccc2)=C(C)N=3)c(C)n1 (centres unmarked),8.87
14,CCOC(=O)c1c(C)oc2ncnc(NCc3cc(OC)ccc3OC)c12,1.15
15,Cc1ccc(S(=O)(=O)Nc2ccc(S(=O)(=O)NC(C)(C)C)cc2)cc1,2.44
16,COc1ccc(C2=NC(C(F)(F)F)(C(F)(F)F)N=C3C=CC(C)=CN32)cc1,-3.53
17,CCOc1cc(/C=C2/NC(=O)N(CC)C2=O)ccc1OCc1ccc(C(=O)O)cc1,-3.13
18,COc1ccccc1NC(=O)COc1ccccc1,1.44
19,COc1cc(C)nc(NC(=O)Nc2sc(NS(=O)(=O)c3ccccc3)nc2C)n1,0.131
20,COc1ccc2oc(=O)c(-c3cn4c(n3)sc3cc(Cl)ccc34)cc2c1,1.58
21,Cc1nc2ccc(S(=O)(=O)N(CC(=O)NC3CCCC3)Cc3ccccc3)cc2s1,-8.32
22,Brc1ccc(CN2CCN(c3ncccn3)CC2)o1,-0.828
23,COCC(C)NCc1ccccc1OC (centres unmarked),2.91
24,Cc1ccc(S(=O)(=O)N2CCC(C(=O)NCc3ccc(F)cc3)CC2)cc1,-3.12
25,COc1cc(CN2CCc3ccccc3C2)cc2c1OCO2,1.87
